# Laboratory results taken from the supplement of paper PMC10126150.
# Sequences with one replicate were seen in a single cluster, so their values are uncertain.
# Test system: ATP
# Test: switch fluorescence ratio, 500 uM ATP over buffer (Cy3 cluster intensity, sum of 5 cycles each) (fold (ratio)); higher = stronger signal-on switching upon ATP binding; sequences stand for … in TCGTCGGCAGCGTCAGATGTGTATAAGAGACAGTTTTTTTTTTTTTTTTTTTTTTTTT…TC
# Settings: aptamer strand: ATP DNA aptamer (quencher-CACCTGGGGGAGTATTGCGGAGGAAGG + anchor), 100 nM annealed; ATP concentration: 500 uM; one replicate
# In short: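 Between each of five buffer/ATP cycles, the flow-cell was stripped with NaOH and re-annealed. Each cycle imaged Cy3-labelled switching-strand clusters, annealed to 100 nM quencher-labelled ATP aptamer on a modified Illumina MiSeq flow-cell, first in selection buffer and then after 15 min with 500 uM ATP at 22 °C. The fluorescence ratio is summed target-cycle over summed buffer-cycle Cy3 intensity per cluster, averaged per switch-domain sequence, with clusters outside 100-1000 RFU excluded.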
# 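Also: ATP exposure 15 min at 22 °C before imaging.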
row,Sequence,switch fluorescence ratio
1,GCGAGGGAGC,0.964
2,GCGAGGTTTG,0.932
3,GCGAGTTTGA,0.973
4,GCGATGAAAA,1.09
5,GCGATGAAAT,1.05
6,GCGATTTTGC,1.07
7,GCGCAAGTGT,1.01
8,GCGCACATGG,1.9
9,GCGCCAATCT,1.2
10,GCGCCCTGTC,1.08
11,GCGCCTGGAG,1
12,GCGCCTTACA,1.04
13,GCGCGATCAG,1.1
14,GCGCGATTAG,1.09
15,GCGCGCTATG,1.02
16,GCGCGGCA,0.965
17,GCGCGGCCCG,0.97
18,GCGCGGTATA,1.01
19,GCGCTAAGTA,1.01
20,GCGCTACTAT,1.04
21,GCGCTAGCAT,1.03
22,GCGCTGCGGG,1.01
23,GCGCTGGGTC,0.968
24,GCGCTTATTG,0.981
25,GCGCTTGAGT,1.02
26,GCGCTTGCTT,1.11

row,Sequence,switch fluorescence ratio
1,GCGCTTTAGC,1.03
2,GCGGAAAAGA,1
3,GCGGAATTTG,1.01
4,GCGGAGCGAT,1.8
5,GCGGATTAGT,1.03
6,GCGGATTCTG,1.02
7,GCGGCAGAA,1.01
8,GCGGCAGTTG,1.01
9,GCGGCCTGCT,0.984
10,GCGGCGAGTA,0.978
11,GCGGCGGAAT,1.1
12,GCGGCGTCGA,1.03
13,GCGGGAAATG,1.05
14,GCGGGAAGGC,1.02
15,GCGGGACAAA,1
16,GCGGGATGAC,1.02
17,GCGGGATTTG,0.974
18,GCGGGCAAGG,1.03
19,GCGGGCCGGT,1.05
20,GCGGGGATCC,0.959
21,GCGGGGCATT,0.992
22,GCGGGGGCA,1.11
23,GCGGGGTGGC,1.04
24,GCGGGTAAAT,0.963
25,GCGGTATGTG,0.987
26,GCGGTCGTGG,0.955

row,Sequence,switch fluorescence ratio
1,GCGGTGGCTT,0.964
2,GCGGTGGG,1.03
3,GCGGTGTG,0.994
4,GCGGTTTGCC,0.94
5,GCGTAAGGGC,0.968
6,GCGTAATATA,1.14
7,GCGTACTATA,1.03
8,GCGTACTGGT,0.988
9,GCGTACTTTT,1
10,GCGTAGGTTA,1.04
11,GCGTATGAAC,1.01
12,GCGTATGATG,1.15
13,GCGTATTTTG,0.975
14,GCGTCAAATT,1.01
15,GCGTCAGCCC,0.987
16,GCGTCAGGGC,1.03
17,GCGTCATGTA,1.03
18,GCGTCCCACA,0.977
19,GCGTCGCGCT,0.998
20,GCGTGAAGAC,1.09
21,GCGTGAGAA,1
22,GCGTGCACAA,1.05
23,GCGTGGCTGC,1.01
24,GCGTGTGTAT,1
25,GCGTTATCTA,0.989
26,GCGTTATGCA,1.03

row,Sequence,switch fluorescence ratio
1,GCGTTGCGGG,1.04
2,GCGTTGCTGG,0.974
3,GCGTTGGCGT,1
4,GCTAAAGAAT,1.01
5,GCTAAATTAG,0.998
6,GCTAATGATA,0.994
7,GCTAATGGAC,1.03
8,GCTACAACTA,1.01
9,GCTACCAGG,1.47
10,GCTACGGAAG,1.14
11,GCTACGGCCG,1
12,GCTACGGGGA,1.07
13,GCTACTGCTC,1.04
14,GCTACTTTT,0.995
15,GCTAGAGTCT,1.04
16,GCTAGCCTAT,0.975
17,GCTAGCGTCA,1.02
18,GCTAGCTGGA,1.01
19,GCTATAACGC,1.01
20,GCTATAGTGC,0.979
21,GCTATATTCG,1.01
22,GCTATCAGGT,1.02
23,GCTATTCGCC,1
24,GCTCAAAGTG,1
25,GCTCACAAAC,1.42
26,GCTCAGTATT,0.996

row,Sequence,switch fluorescence ratio
1,GCTCAGTGGG,1.08
2,GCTCATACTA,1.04
3,GCTCATATTT,0.977
4,GCTCCACTAA,1.59
5,GCTCCCAAGT,1.84
6,GCTCCCACAC,3.93
7,GCTCGAGCGG,0.998
8,GCTCGCTTC,1.04
9,GCTCGTTAAG,0.99
10,GCTCGTTGAA,1.01
11,GCTCTACGAG,1
12,GCTCTATAAC,1.12
13,GCTCTCAAGT,1.02
14,GCTCTGGGTC,1.02
15,GCTCTTAGGG,1.03
16,GCTCTTATCT,0.988
17,GCTCTTGTGT,1
18,GCTCTTGTTT,1.4
19,GCTGAAGCTA,1.01
20,GCTGACTGTA,1.12
21,GCTGAGGGCG,1
22,GCTGATGCGA,1.04
23,GCTGATGTCA,1.06
24,GCTGATTTCC,1.06
25,GCTGCAAGTG,1.01
26,GCTGCATTG,1.02

row,Sequence,switch fluorescence ratio
1,GCTGCCCAAC,1.11
2,GCTGCCGGTA,1.04
3,GCTGCGGTAT,1.02
4,GCTGCGGTCC,1.05
5,GCTGCTCAAT,1.22
6,GCTGCTCGGC,1.02
7,GCTGCTTGCT,1
8,GCTGCTTGT,1.06
9,GCTGGACCGT,0.99
10,GCTGGAGAAT,0.965
11,GCTGGCGCT,0.962
12,GCTGGCGCTC,1.01
13,GCTGGCGGAG,0.972
14,GCTGGGGCAT,0.95
15,GCTGGGGCGC,1
16,GCTGGTAAGT,0.991
17,GCTGGTCGTG,0.994
18,GCTGGTGCGT,0.966
19,GCTGGTTGAT,0.999
20,GCTGGTTTTA,0.989
21,GCTGTACGTC,1.09
22,GCTGTATTGG,0.994
23,GCTGTCTATT,0.987
24,GCTGTGACTT,1.21
25,GCTGTGTAAG,0.971
26,GCTGTGTCTG,0.964

row,Sequence,switch fluorescence ratio
1,GCTGTTAGGA,1.04
2,GCTGTTTTCG,1.03
3,GCTTAAAATC,1.03
4,GCTTACACAC,1.32
5,GCTTACATT,0.992
6,GCTTACGCCG,0.999
7,GCTTAGGGGT,1.03
8,GCTTAGTCTT,0.96
9,GCTTAGTGCC,1.02
10,GCTTATAGTA,0.985
11,GCTTATCTTA,1.01
12,GCTTATGATA,1.03
13,GCTTCACCGA,1.03
14,GCTTCGAACC,1.12
15,GCTTCGTGGA,1.03
16,GCTTGAAGAT,0.964
17,GCTTGAGTTT,0.995
18,GCTTGATT,1.02
19,GCTTGATTGC,1.07
20,GCTTGATTGT,1.03
21,GCTTGCAGGG,1.01
22,GCTTGCGG,1.03
23,GCTTGCTGAA,0.982
24,GCTTGGAATT,1.03
25,GCTTGGATG,0.996
26,GCTTGGCATT,0.992

row,Sequence,switch fluorescence ratio
1,GCTTGGGTAC,1.02
2,GCTTGGTGCG,0.978
3,GCTTGTTGCT,0.99
4,GCTTTAAATA,0.963
5,GCTTTACAAT,0.994
6,GCTTTAGAA,0.93
7,GCTTTATGT,0.996
8,GCTTTATTGA,0.977
9,GCTTTCAC,1.02
10,GCTTTCGCTT,0.989
11,GCTTTCGGAT,1.03
12,GCTTTCGGTG,1.03
13,GCTTTGAATC,1
14,GCTTTGCGCA,1.01
15,GCTTTGGCAA,0.982
16,GCTTTGTAA,0.955
17,GCTTTGTAAT,1.01
18,GCTTTTAAGG,0.991
19,GCTTTTAGGC,1.12
